Measurements: PMC5700166
This is a selection; strong and weak results do not stand in their true shares. The list includes weakly bound sequences.

target: T1, GST-Ap-NF-kB RHD (UniProt A0A913YAJ5); experiment: protein-binding microarray (PBM); settings: PBM: ~300 nM protein, 6 mM HEPES pH 7.8, 80 mM KCl, 0.5 mM EDTA, 0.5 mM EGTA, 6% glycerol, 35 ng/ul poly-dIdC, 1% milk, 1 h, room temperature; Ap Aiptasia and Nv Nematostella (sea anemones) / Co Capsaspora / Aq Amphimedon (sponge) / Dm Drosophila / Hu human; RHD is the Rel homology domain; high values mean tight binding; most listed sequences are background and not binding sites; double strand, one strand shown
T1 sequence: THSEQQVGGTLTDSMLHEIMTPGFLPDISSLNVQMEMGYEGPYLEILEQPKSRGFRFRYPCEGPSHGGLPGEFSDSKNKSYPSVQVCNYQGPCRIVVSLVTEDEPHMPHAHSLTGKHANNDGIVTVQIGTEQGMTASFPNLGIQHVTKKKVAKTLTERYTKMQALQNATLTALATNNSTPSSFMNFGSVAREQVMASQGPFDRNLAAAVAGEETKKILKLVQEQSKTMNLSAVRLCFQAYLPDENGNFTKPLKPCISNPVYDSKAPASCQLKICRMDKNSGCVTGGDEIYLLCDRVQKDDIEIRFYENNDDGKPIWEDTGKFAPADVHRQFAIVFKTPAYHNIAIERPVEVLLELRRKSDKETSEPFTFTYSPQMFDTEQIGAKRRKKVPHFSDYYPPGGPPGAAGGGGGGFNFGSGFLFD

**Q.** Which binding signal does the source give for “CCGATTAACATCAGGATCCCCCCTGATGTTAATCGGGTCTTGATTCGCTTGACGCTGCTG” here?
**A.** 8.27 z-score

**Q.** Which binding signal does the source give for “CCGATTAACATCAGGGGTTTTACTGATGTTAATCGGGTCTTGATTCGCTTGACGCTGCTG” here?
**A.** 5.39 z-score

**Q.** With “CCGATTAACATCATATTCCCCCATGATGTTAATCGGGTCTTGATTCGCTTGACGCTGCTG” as the sequence, how does the binding signal read?
**A.** 6.56 z-score

**Q.** With “CCGATTAACATCAATTCCCAACCTGATGTTAATCGGGTCTTGATTCGCTTGACGCTGCTG” as the sequence, how does the binding signal read?
**A.** 0.86 z-score

**Q.** How did the binding signal turn out when “CCGATTAACATCAGGCCATTCCCTGATGTTAATCGGGTCTTGATTCGCTTGACGCTGCTG” was run?
**A.** 1.39 z-score

**Q.** “CCGATTAACATCAGGGGAGGTACTGATGTTAATCGGGTCTTGATTCGCTTGACGCTGCTG” was tested. Which binding signal did it give?
**A.** 4.21 z-score

**Q.** Which binding signal does the source give for “CCGATTAACATCAAAAATCCCCCTGATGTTAATCGGGTCTTGATTCGCTTGACGCTGCTG” here?
**A.** 11.1 z-score

**Q.** With “CCGATTAACATCAGGGGGTTGGATGATGTTAATCGGGTCTTGATTCGCTTGACGCTGCTG” as the sequence, how does the binding signal read?
**A.** 4.25 z-score

**Q.** With “CCGATTAACATCACTCTTCTCGGTGATGTTAATCGGGTCTTGATTCGCTTGACGCTGCTG” as the sequence, how does the binding signal read?
**A.** 0.929 z-score

**Q.** With “CCGATTAACATCAGGAAATACCCTGATGTTAATCGGGTCTTGATTCGCTTGACGCTGCTG” as the sequence, how does the binding signal read?
**A.** 6.05 z-score

**Q.** Which binding signal does the source give for “CCGATTAACATCACGGGGGGGGATGATGTTAATCGGGTCTTGATTCGCTTGACGCTGCTG” here?
**A.** 6.27 z-score

**Q.** How did the binding signal turn out when “CCGATTAACATCAGGCAAGCCCCTGATGTTAATCGGGTCTTGATTCGCTTGACGCTGCTG” was run?
**A.** 2.62 z-score

**Q.** With “CCGATTAACATCAACATTACCCCTGATGTTAATCGGGTCTTGATTCGCTTGACGCTGCTG” as the sequence, how does the binding signal read?
**A.** 2.39 z-score

**Q.** With “CCGATTAACATCAAAAACCCCCATGATGTTAATCGGGTCTTGATTCGCTTGACGCTGCTG” as the sequence, how does the binding signal read?
**A.** 9.51 z-score
